Laboratory results from PubChem BioAssay AID504832 (National Center for Advancing Translational Sciences (NCATS), 2011).
Where “and” joins values, the source holds several entries; their conditions need not be identical. Equal entries are not always repeated. The whole screen tested about 310,000 compounds, of which about 18,000 (5.8%) were called active. The shares of active, inactive and inconclusive entries below differ from those in the screen. Calls follow the shape of the dose curve; as a rule, active = well fitted inhibition curve with a large enough effect; inconclusive = small, poorly fitted or top-dose-only effect, or another doubt; inactive = no such curve, though single readings can be large or run the other way. Potencies beside an inconclusive call are fits to weak or partial responses and may not hold up.

Assay: Primary qHTS for delayed death inhibitors of the malarial parasite plastid, 48 hour incubation
Details: P. falciparum luciferase growth in erythrocytes; series mostly up to 28.7 µM
In short: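 Luciferase-expressing parasites in RBCs, 2% Hct / 0.1% parasitemia final; RPMI 1640 + 0.5% Albumax; 37 C, 5% CO2, one generation; luminescence read-out, lower signal = inhibition.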
Potency is read from the fitted curve at half-maximal effect; tags tell the direction and shape of the fitted curve.

Structure (SMILES) | Potency
CC(=O)c1c(C)oc2ccc(N(C(=O)C3CCCCC3)S(=O)(=O)c3cc([N+](=O)[O-])ccc3C)cc12 | inactive
O=C(NCc1ccc(Cl)cc1)C1CCN(S(=O)(=O)c2ccc(F)cc2)CC1 | inactive
O=C(CN1CCCC1)N1CCCc2ccccc21 | inactive
O=C(c1ccccc1)c1ccccc1C(=O)c1ccccc1 | inconclusive: 7.38 µM [inhibitor, partial curve, poor fit] and inconclusive: 6.57 µM [inhibitor, partial curve, poor fit]
CCn1cc(CN2CCCC(C(=O)Nc3cccc(-c4cc5ccccc5[nH]4)c3)C2)c(C)n1 (configuration not stated) | inconclusive: 6.57 µM [inhibitor, partial curve]
Cc1ccc2oc(=O)n(CCOc3ccccc3)c2c1 | inconclusive: 18.5 µM [inhibitor, single point]
CC(=O)Nc1ccc2c(c1)CN(c1cc(C)ccc1C)CO2 | inactive
COc1ccc(NC(=O)CC2C(=O)Nc3ccccc3N2CC(=O)N2CCCC2)cc1 (configuration not stated) | inactive
COc1ccc(/C=N/NC(=O)c2ccc(CN3C(=O)c4cccc5cccc3c45)cc2)cc1O | inconclusive: 0.415 µM [inhibitor, partial curve, poor fit]
CCC1CCCCN1S(=O)(=O)c1ccc2c(c1)CCN2C(=O)C1CCC1 (configuration not stated) | active: 9.28 µM
O=C(N/N=C/c1ccccn1)c1cc([N+](=O)[O-])cc([N+](=O)[O-])c1 | inconclusive: 8.28 µM [inhibitor, partial curve]
Cc1onc(-c2ccccc2Cl)c1C(=O)NC(=S)NCC(=O)c1ccccc1 | inactive
COc1ccc(-c2nc3ccc(N4CCN(C)CC4)cc3c(=O)[nH]2)cc1 | inconclusive: 0.0329 µM [inhibitor, full curve, poor fit]
N=c1c2c(n(Cc3ccc(Br)cc3)c3c1CCC3)CCCC2 | active: 0.0928 µM
CCOc1ccc(-n2c(=O)c3c4c(sc3n(CC(=O)NCC3CCCO3)c2=O)CCCC4)cc1 (configuration not stated) | inactive
Cc1ccc(/C=C2\SC(=S)N(CCCC(=O)Nc3nccs3)C2=O)cc1 | inactive
N#Cc1ccc(CN2CCN(C(=O)CC(NC(=O)c3ccccc3)c3ccccc3)CC2)cc1 (configuration not stated) | inactive
Cc1ccc(C(C)NC(=O)C2CCCC2)cc1C (configuration not stated) | inconclusive: 0.0928 µM [inhibitor, full curve, poor fit]
Cc1ccc2nc(SCC(=O)Nc3cccnc3Cl)[nH]c2c1 | inactive
CCOC(=O)N1CCN(C(=O)CSc2ccc(-c3ccccc3OC)nn2)CC1 | inconclusive: 0.0037 µM [inhibitor, full curve, poor fit]
CCN1CCN(c2ccc(S(=O)(=O)N3CCCCC3)cc2NC(=O)/C=C/c2cc(OC)ccc2OC)CC1 | inconclusive: 6.57 µM [inhibitor, partial curve]

Structure (SMILES) | Potency
CC(C)CNC(=O)C(=O)NCC1CCCN1S(=O)(=O)c1cccs1 (configuration not stated) | inconclusive: 11.7 µM [inhibitor, partial curve, poor fit]
COc1cc(CCN2C(=O)c3cccc4cccc(c34)C2=O)c(S(=O)(=O)NCCO)cc1OC | inconclusive: 18.5 µM [inhibitor, single point]
O=C1C(Cc2ccccc2)Nc2ncnc(N3CCN(c4ccccc4)CC3)c2N1Cc1ccc(Cl)cc1 (configuration not stated) | active: 3.7 µM
COc1ccccc1CN1CCCC(C(=O)N(C)Cc2ccccc2)C1 (configuration not stated) | inconclusive: 18.5 µM [inhibitor, single point]
CN1CCC(N(C)S(=O)(=O)c2ccc(NC(=O)COc3ccc(F)cc3)cc2)CC1 | inconclusive: 18.5 µM [inhibitor, single point]
CCCn1c(N)c(C(=O)CSc2nnc(-c3cccnc3)n2-c2ccc(C)cc2C)c(=O)[nH]c1=O | active: 9.28 µM
CCCn1c(=O)c(C(=O)NC(C)c2ccccc2)c(O)c2ccccc21 (configuration not stated) | inconclusive: 18.5 µM [inhibitor, single point]
COc1ccc(C(=O)C2CCCN(Cc3c(O)cccc3OC)C2)cc1OC (configuration not stated) | inconclusive: 11.7 µM [inhibitor, partial curve]
COc1ccccc1Nc1ccc(NS(=O)(=O)c2ccc(C(C)=O)cc2)cc1 | inconclusive: 13.1 µM [inhibitor, partial curve, poor fit]
N#CC1=C(N)C(C#N)(C#N)C2(CCC3(CC2)OCCO3)C2CC3(CC=C12)OCCO3 (configuration not stated) | inconclusive: 1.65 µM [inhibitor, partial curve, poor fit]
O=C(CCc1nc2sc3c(c2c(=O)[nH]1)CCCC3)NCC(=O)Nc1ccccc1Br | inconclusive: 10.4 µM [inhibitor, single point]
COc1ccc(CCN2CC(C(=O)Nc3ccccc3F)CC2=O)cc1OC (configuration not stated) | inconclusive: 9.28 µM [inhibitor, partial curve, poor fit]
O=C(Nc1nc(-c2ccccn2)cs1)c1ccc(S(=O)(=O)N2CCCCC2)cc1 | active: 3.29 µM
COc1ccccc1C(=O)NCCC(=O)NNC(=O)C1COc2ccccc2O1 (configuration not stated) | inactive
Cc1onc(-c2ccc(Cl)cc2Cl)c1-c1csc(COc2ccccc2)n1 | inconclusive: 14.7 µM [inhibitor, single point]
CCC(C)(C)NC(=O)C(c1ccc(OC)cc1)N(Cc1ccc(OC)cc1)C(=O)CCC(=O)Nc1cc(C)on1 (configuration not stated) | inconclusive: 14.7 µM [inhibitor, partial curve]
Cc1ccc(C(=O)Nc2nnc(-c3ccco3)o2)cc1 | inactive
O=C(CCl)c1ccc(Oc2ccc(C(=O)CCl)cc2)cc1 | inconclusive: 19 µM [inhibitor, single point]
CCCCn1c(=O)[nH]c(=O)c2c1nc(COC(=O)c1c(C)noc1C)n2CCC | inconclusive: 18.5 µM [inhibitor, single point]
CN(C)S(=O)(=O)c1ccc(C(=O)OCCN=C2NS(=O)(=O)c3ccccc32)cc1 | inconclusive: 10.4 µM [inhibitor, single point]
Cc1ccc2c(c1)[C@H]1[C@H](CO2)[C@H](c2ccccc2)[C@]2(C)C(=O)NCC(=O)N12 | inactive
